Results: PMC4336329 (PLoS ONE, 2015)
The whole screen tested about 310,000 compounds, of which about 14,000 (4.5%) showed an effect of 50% or more. The effect is printed as a negative number. The list shows a part of the results. Where a SMILES comes first, the peptide text is derived from it. The star is where a group is joined. Piperidide = C1CCN(*)CC1; PhAc = O=C(Cc1ccccc1)*
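Also: peak tail current of the secondary pulse compared with the same well before compound.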

What follows are compounds tested against human ether-à-go-go-related gene (hERG) potassium channel (human, UniProt Q12809) (assay: primary screen, population patch clamp on CHO cells stably expressing hERG).
Sequence of human ether-à-go-go-related gene (hERG) potassium channel (Q12809 whole entry, looked up): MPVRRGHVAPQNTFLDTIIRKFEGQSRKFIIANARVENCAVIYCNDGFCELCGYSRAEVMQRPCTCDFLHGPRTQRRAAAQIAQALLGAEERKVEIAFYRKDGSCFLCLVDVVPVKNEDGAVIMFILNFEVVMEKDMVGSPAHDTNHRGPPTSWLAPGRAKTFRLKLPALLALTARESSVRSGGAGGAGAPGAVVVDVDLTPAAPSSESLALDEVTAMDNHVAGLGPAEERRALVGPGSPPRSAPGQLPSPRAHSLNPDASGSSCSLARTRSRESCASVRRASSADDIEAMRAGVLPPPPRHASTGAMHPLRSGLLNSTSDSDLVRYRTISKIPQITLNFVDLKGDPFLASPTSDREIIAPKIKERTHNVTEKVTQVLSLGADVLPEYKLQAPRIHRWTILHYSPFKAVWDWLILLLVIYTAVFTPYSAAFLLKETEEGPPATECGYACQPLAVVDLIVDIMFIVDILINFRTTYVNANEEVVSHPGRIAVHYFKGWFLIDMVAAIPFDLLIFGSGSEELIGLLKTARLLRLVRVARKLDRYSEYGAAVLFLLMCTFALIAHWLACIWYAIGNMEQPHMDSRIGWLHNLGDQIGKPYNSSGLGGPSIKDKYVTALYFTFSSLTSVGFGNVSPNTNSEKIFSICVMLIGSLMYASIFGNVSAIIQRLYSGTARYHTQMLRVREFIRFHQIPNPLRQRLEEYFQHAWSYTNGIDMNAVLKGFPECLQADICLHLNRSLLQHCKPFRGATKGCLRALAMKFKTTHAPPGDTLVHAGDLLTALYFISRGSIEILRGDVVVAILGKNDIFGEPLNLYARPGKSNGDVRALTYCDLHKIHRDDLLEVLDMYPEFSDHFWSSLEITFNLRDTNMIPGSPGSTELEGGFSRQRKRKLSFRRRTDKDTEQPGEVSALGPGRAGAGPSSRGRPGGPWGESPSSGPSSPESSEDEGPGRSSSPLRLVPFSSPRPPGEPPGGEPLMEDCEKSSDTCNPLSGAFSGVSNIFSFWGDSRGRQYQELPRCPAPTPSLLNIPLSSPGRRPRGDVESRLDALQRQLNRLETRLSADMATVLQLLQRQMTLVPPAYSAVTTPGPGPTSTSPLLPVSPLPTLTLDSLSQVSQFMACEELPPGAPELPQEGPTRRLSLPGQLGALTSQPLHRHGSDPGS
With `COc1ccc(OC)c(N(CC(=O)Nc2ccccc2)S(C)(=O)=O)c1` the “hERG current change (%, negative = inhibition) at 10uM” value was 11.4%. For `COC(=O)CCC(=O)OC1(C)C(=O)C=C2C=C(C3CC3)N(Cc3ccccc3)C=C2C1=O` (stereo not drawn), the “hERG current change (%, negative = inhibition) at 10uM” value was -2.31%. In the case of `O=C(COC(=O)c1sc2cc(F)ccc2c1Cl)Nc1ncc(Cl)cc1Cl`, the “hERG current change (%, negative = inhibition) at 10uM” value is reported as 10.3%. In the case of `Cc1ccc(S(=O)(=O)NCC(c2ccco2)N2CCc3ccccc32)cc1` (stereo not drawn), the “hERG current change (%, negative = inhibition) at 10uM” value is reported as -13.6%. `COc1ccc(-c2cn[nH]c2-c2ccc(O)cc2O)cc1` was tested, and the “hERG current change (%, negative = inhibition) at 10uM” value was 6.35%. In the case of `COC(=O)c1cccc(S(=O)(=O)N2CCC(n3nnc4cc(F)ccc43)CC2)c1`, the “hERG current change (%, negative = inhibition) at 10uM” value is reported as -34.3%. In the case of `COc1cccc2cc(C(N)=O)oc12`, the “hERG current change (%, negative = inhibition) at 10uM” value is reported as 15.4%. In the case of `COc1cc(N=Cc2c(CO)cnc(C)c2O)cc(OC)c1OC`, the “hERG current change (%, negative = inhibition) at 10uM” value is reported as 13.5%. `O=C(Nc1ccc(Br)cc1)C1CCCN(S(=O)(=O)c2cccnc2)C1` (stereo not drawn) was tested, and the “hERG current change (%, negative = inhibition) at 10uM” value was -29.8%. `O=C(CNC(=O)Cc1ccccc1)NCC(=O)N1CCCCC1` (PhAc-Gly-Gly-Piperidide) was tested, and the “hERG current change (%, negative = inhibition) at 10uM” value was 6.06%. In the case of `CC(C)(C)C(=O)C(Cc1ccccc1)n1cncn1` (stereo not drawn), the “hERG current change (%, negative = inhibition) at 10uM” value is reported as 5.96%. For `O=C(CC1OC(=O)c2ccccc21)Nc1cc(Cl)ccc1N1CCCC1` (stereo not drawn), the “hERG current change (%, negative = inhibition) at 10uM” value was -8.18%. With `CC(c1ccccc1)N1C(=O)/C(=C/c2ccncc2)SC1=S` (stereo not drawn) the “hERG current change (%, negative = inhibition) at 10uM” value was 3.24%. With `C=CCn1c(SCC(=O)N2CCOCC2)nc2c([nH]c3ccccc32)c1=O` the “hERG current change (%, negative = inhibition) at 10uM” value was -52.9%. In the case of `C/C(Cn1ncc(N2CCOCC2)c(Cl)c1=O)=N\O`, the “hERG current change (%, negative = inhibition) at 10uM” value is reported as 18.3%. `O=C(NC1CC1)C1CCCN(C(=O)Nc2ccc(F)cc2)C1` (stereo not drawn) was tested, and the “hERG current change (%, negative = inhibition) at 10uM” value was 0.869%. In the case of `CSc1nc2ccc(C)cc2c(=O)n1-c1cccnc1`, the “hERG current change (%, negative = inhibition) at 10uM” value is reported as -3.76%. For `COc1ccc(C(=O)Oc2ccc3ccc(=O)oc3c2)cc1`, the “hERG current change (%, negative = inhibition) at 10uM” value was 32.4%. In the case of `COc1ccc(N2CCN(C(=O)c3cccc(S(=O)(=O)N4CCCc5ccccc54)c3)CC2)cc1`, the “hERG current change (%, negative = inhibition) at 10uM” value is reported as -21.4%. In the case of `COc1ccc(C)cc1S(=O)(=O)n1cnc2ccccc21`, the “hERG current change (%, negative = inhibition) at 10uM” value is reported as 12%. With `O=C(COc1ccccc1)Nc1nnc(-c2ccc(Cl)s2)o1` the “hERG current change (%, negative = inhibition) at 10uM” value was -1.67%. With `Cn1c(=O)c2c(nc(OCCc3ccccc3)n2C)n(C)c1=O` the “hERG current change (%, negative = inhibition) at 10uM” value was 7.2%. With `CN(Cc1ccccc1)Cc1nc2c(c(=O)n(C)c(=O)n2C)n1Cc1ccc(F)cc1` the “hERG current change (%, negative = inhibition) at 10uM” value was -55.6%. In the case of `CCOC(=O)N/N=C/c1cccc(Cl)c1Cl`, the “hERG current change (%, negative = inhibition) at 10uM” value is reported as 5.82%. For `CCCN1CCc2c(sc3nc(SC)n(-c4ccccc4)c(=O)c23)C1`, the “hERG current change (%, negative = inhibition) at 10uM” value was 15%. For `COc1ccc(OC)c(C(=O)Cn2cnc3ccccc3c2=O)c1`, the “hERG current change (%, negative = inhibition) at 10uM” value was -5.63%. With `COCc1cc(C)nc(SCC(=O)Nc2ccc(C)c(C)c2)c1C#N` the “hERG current change (%, negative = inhibition) at 10uM” value was 1.53%. `Cc1cccc[n+]1CC(=O)c1ccc2c(c1)OCCO2.[Br-]` was tested, and the “hERG current change (%, negative = inhibition) at 10uM” value was 11.8%. In the case of `COc1cccc(-c2csc(N3CCN(C(=O)Nc4ccccc4OC)CC3)n2)c1`, the “hERG current change (%, negative = inhibition) at 10uM” value is reported as -23.7%. `COc1ccc2[nH]c(=O)c(CN(CC3CCCO3)C(=S)Nc3cccc(C)c3)cc2c1` (stereo not drawn) was tested, and the “hERG current change (%, negative = inhibition) at 10uM” value was 16.3%. For `COc1ccc(CCNC(=O)/C=C\c2ccccc2)cc1OC`, the “hERG current change (%, negative = inhibition) at 10uM” value was -7.74%. `CC[N+](CC)(CC)CCOc1ccc(/C=C/c2ccccc2)cc1.[I-]` was tested, and the “hERG current change (%, negative = inhibition) at 10uM” value was -46.6%. With `COc1ccc2nc(NC(=O)CSc3nnc(N)s3)sc2c1` the “hERG current change (%, negative = inhibition) at 10uM” value was 3.74%. With `CCOC(=O)C1CCN(C(=O)C2CCCN(S(=O)(=O)c3ccc(OCC)c(Cl)c3)C2)CC1` (stereo not drawn) the “hERG current change (%, negative = inhibition) at 10uM” value was -40.8%. With `NNc1nc(C(F)(F)F)nc2ccccc12` the “hERG current change (%, negative = inhibition) at 10uM” value was -3.77%. For `CC(NC(=O)CNC(=S)N(Cc1cccs1)C1CCCC1)c1ccccc1` (stereo not drawn), the “hERG current change (%, negative = inhibition) at 10uM” value was -11.8%. For `Oc1c(C(c2ccco2)N2CCC3(CC2)OCCO3)sc2ncnn12` (stereo not drawn), the “hERG current change (%, negative = inhibition) at 10uM” value was 1.38%. In the case of `Cl.Clc1ccccc1CN1CCN(/N=C/c2ccncc2)CC1`, the “hERG current change (%, negative = inhibition) at 10uM” value is reported as -24.3%. With `CC(=O)NCCC(Cc1ccccc1)c1ccco1` (stereo not drawn) the “hERG current change (%, negative = inhibition) at 10uM” value was 5.91%. In the case of `N#CCSc1nc2c(c(C3CC=CCC3)c1C#N)CCC2` (stereo not drawn), the “hERG current change (%, negative = inhibition) at 10uM” value is reported as 11.8%. In the case of `COc1cccc(CNC(=O)c2ccc(C)c(NC3=NC4CS(=O)(=O)CC4S3)c2)c1` (stereo not drawn), the “hERG current change (%, negative = inhibition) at 10uM” value is reported as -8.85%. For `CC/C(=N/O)c1cnnc(SC)n1`, the “hERG current change (%, negative = inhibition) at 10uM” value was 6.56%. In the case of `COc1cccc(-c2ccc(NC(=O)C3CCCN(CCCn4nc(C)cc4C)C3)cc2)c1` (stereo not drawn), the “hERG current change (%, negative = inhibition) at 10uM” value is reported as -66%. `COc1ccc(OC(C)C(=O)N2CCC(C)CC2)cc1` (stereo not drawn) was tested, and the “hERG current change (%, negative = inhibition) at 10uM” value was -5.47%. `CCOC(=O)c1cnc2ccc(C)cc2c1NCCO` was tested, and the “hERG current change (%, negative = inhibition) at 10uM” value was -66.4%. In the case of `CCc1nnc(NC(=O)c2cccc(C(=O)Nc3nnc(CC)s3)n2)s1`, the “hERG current change (%, negative = inhibition) at 10uM” value is reported as -30.5%. `Cc1ccc(C)c(NC(=S)N2CCN(CCO)CC2)c1` was tested, and the “hERG current change (%, negative = inhibition) at 10uM” value was -4.63%. In the case of `O=C(Cc1c[nH]c2ccccc12)N/N=C/c1ccc(F)cc1`, the “hERG current change (%, negative = inhibition) at 10uM” value is reported as 6.33%. For `Cc1ccc(C)c(NC(=O)CCC(=O)OC(C(=O)c2ccccc2)c2ccccc2)c1` (stereo not drawn), the “hERG current change (%, negative = inhibition) at 10uM” value was -20.8%. For `Cc1c(Cc2ccc3c(c2)OCO3)sc(NC(=O)C2CC2)c1C(N)=O`, the “hERG current change (%, negative = inhibition) at 10uM” value was -4.31%. In the case of `CC1CC(NC(=O)c2cnc3n(c2=O)CCS3)CC(C)(C)C1` (stereo not drawn), the “hERG current change (%, negative = inhibition) at 10uM” value is reported as -2.39%. In the case of `CN(C)C(CNC(=O)c1ccc(OCc2cn3ccccc3n2)cc1)c1ccco1` (stereo not drawn), the “hERG current change (%, negative = inhibition) at 10uM” value is reported as -4.67%. In the case of `COc1ccc(Cl)cc1NC(=O)c1cccc(NC(=O)CCC(=O)O)c1`, the “hERG current change (%, negative = inhibition) at 10uM” value is reported as 6.88%. With `Cc1ccc(C(=O)Nc2cc(C)c(OCC(=O)N3CCOCC3)c(C)c2)cc1` the “hERG current change (%, negative = inhibition) at 10uM” value was -11.3%. `COc1ccc(C(=O)OCC(=O)NCC2CCCCC2)cc1S(=O)(=O)N1CCCc2ccccc21` was tested, and the “hERG current change (%, negative = inhibition) at 10uM” value was 10.6%. In the case of `CCOc1cc(S(=O)(=O)NCCCN2CCOCC2)c(C)cc1C`, the “hERG current change (%, negative = inhibition) at 10uM” value is reported as 12.4%. `COc1ccc(C(=O)N(Cc2nc(-c3ccc(C)cc3)no2)C2CCCCC2)cc1OC` was tested, and the “hERG current change (%, negative = inhibition) at 10uM” value was -9.71%.
